{
  "source": "the supplement of paper PMC9135407",
  "tested_on": "primary human hepatic stellate cells (donor 1)",
  "assay": "scaled lipid accumulation score (0 = DMSO-like, 1 = nortriptyline-like); higher = stronger HSC inactivation (lipid re-accumulation), active = hit call of the paper",
  "conditions": "48 h",
  "key": {"[1]": {"conditions": "library stock concentration: 80 uM"}, "[2]": {"conditions": "library stock concentration: 400 uM"}, "[3]": {"conditions": "library stock concentration: 2 mM"}, "[4]": {"conditions": "library stock concentration: 10 mM"}, "[5]": {"conditions": "library stock concentration: 1 mM"}, "[6]": {"conditions": "library stock concentration: 3.33 mM"}},
  "note": "Where “and” joins values, the source holds several entries; their conditions need not be identical. Identical values can stand only once. Counter-ions that a name gives are not always drawn. Out of some 5,800 compounds screened, about 620 (11%) showed activity.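 The calls were made as follows: active = score above a cut-off or among the top three wells of a plate; in these data no inactive exceeds 0.85.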 The list shows a part of the results, in another mix than the full data.",
  "data": [
    {"compound": "CNC(=O)c1ccccc1Nc1cc(Nc2ccc(N3CCOCC3)cc2OC)ncc1C(F)(F)F", "values": [
      {"measurement": "scaled lipid accumulation score", "setting": "[1]", "result": "inactive: 0.011"},
      {"measurement": "scaled lipid accumulation score", "setting": "[2]", "result": "inactive: ≤ 0"},
      {"measurement": "scaled lipid accumulation score", "setting": "[3]", "result": "inactive: 0.034"},
      {"measurement": "scaled lipid accumulation score", "setting": "[4]", "result": "inactive: 0.007"}
    ]},
    {"compound": "O=C(O)CCC/C=C\\C[C@@H]1[C@@H](/C=C/[C@@H](O)COc2ccccc2)[C@H](O)C[C@@H]1O", "note": "[16-phenoxy tetranor Prostaglandin F2.alpha.]", "values": [
      {"measurement": "scaled lipid accumulation score", "setting": "[5]", "result": "inactive: ≤ 0"}
    ]},
    {"compound": "CNC(=O)c1cc(Oc2ccc(NC(=O)Nc3ccc(Cl)c(C(F)(F)F)c3)cc2)ccn1", "note": "[Sorafenib Tosylate]", "values": [
      {"measurement": "scaled lipid accumulation score", "setting": "[6]", "result": "inactive: 0.005"},
      {"measurement": "scaled lipid accumulation score", "setting": "[4]", "result": "inactive: ≤ 0"}
    ]},
    {"compound": "CNC(=O)c1cc(Oc2ccc(NC(=O)Nc3ccc(Cl)c(C(F)(F)F)c3)cc2)ccn1", "note": "[Sorafenib  (Nexavar, BAY43-9006) (0.4 mM)]", "values": [
      {"measurement": "scaled lipid accumulation score", "setting": "[2]", "result": "inactive: 0.021"}
    ]},
    {"compound": "CNC(=O)c1cc(Oc2ccc(NC(=O)Nc3ccc(Cl)c(C(F)(F)F)c3)cc2)ccn1", "values": [
      {"measurement": "scaled lipid accumulation score", "setting": "[1]", "result": "inactive: 0.04"},
      {"measurement": "scaled lipid accumulation score", "setting": "[2]", "result": "inactive: 0.075"},
      {"measurement": "scaled lipid accumulation score", "setting": "[3]", "result": "inactive: ≤ 0"},
      {"measurement": "scaled lipid accumulation score", "setting": "[4]", "result": "inactive: 0.672"}
    ]},
    {"compound": "CNC(=O)c1cc(Oc2ccc(NC(=O)Nc3ccc(Cl)c(C(F)(F)F)c3)cc2)ccn1", "note": "[Sorafenib]", "values": [
      {"measurement": "scaled lipid accumulation score", "setting": "[6]", "result": "inactive: ≤ 0"},
      {"measurement": "scaled lipid accumulation score", "setting": "[4]", "result": "inactive: ≤ 0"}
    ]},
    {"compound": "CNC(=O)c1cc(Oc2ccc(NC(=O)Nc3ccc(Cl)c(C(F)(F)F)c3)cc2)ccn1", "note": "[Sorafenib  (Nexavar, BAY43-9006) (2 mM)]", "values": [
      {"measurement": "scaled lipid accumulation score", "setting": "[3]", "result": "inactive: 0.299"}
    ]},
    {"compound": "CO[C@@H]1[C@@H](O[C@@H]2O[C@H](C)[C@@H](O[C@H]3C[C@@](C)(O)[C@@H](OC(=O)CC(C)C)[C@H](C)O3)[C@H](N(C)C)[C@H]2O)[C@@H](CC=O)C[C@@H](C)[C@@H](O)/C=C/C=C/C[C@@H](C)OC(=O)C[C@H]1OC(C)=O", "note": "[Josamycin]", "values": [
      {"measurement": "scaled lipid accumulation score", "result": "inactive: ≤ 0"}
    ]},
    {"compound": "NC(N)=NC(=O)c1nc(Cl)c(N)nc1N", "values": [
      {"measurement": "scaled lipid accumulation score", "setting": "[4]", "result": "inactive: ≤ 0"}
    ]},
    {"compound": "O=c1oc2c(O)c(O)cc3c(=O)oc4c(O)c(O)cc1c4c23", "note": "[Ellagic acid]", "values": [
      {"measurement": "scaled lipid accumulation score", "setting": "[1]", "result": "inactive: ≤ 0"},
      {"measurement": "scaled lipid accumulation score", "setting": "[2]", "result": "inactive: ≤ 0"},
      {"measurement": "scaled lipid accumulation score", "setting": "[3]", "result": "inactive: ≤ 0"},
      {"measurement": "scaled lipid accumulation score", "setting": "[4]", "result": "inactive: ≤ 0"}
    ]},
    {"compound": "CC(=O)CC(c1ccccc1)c1c(O)c2ccccc2oc1=O", "note": "(stereo not drawn) [(?)-Warfarin]", "values": [
      {"measurement": "scaled lipid accumulation score", "setting": "[5]", "result": "inactive: ≤ 0"}
    ]},
    {"compound": "CC(=O)CC(c1ccccc1)c1c(O)c2ccccc2oc1=O", "note": "(stereo not drawn) [Warfarin]", "values": [
      {"measurement": "scaled lipid accumulation score", "setting": "[4]", "result": "inactive: ≤ 0"}
    ]},
    {"compound": "CC(=O)CC(c1ccccc1)c1c(O)c2ccccc2oc1=O", "note": "(stereo not drawn)", "values": [
      {"measurement": "scaled lipid accumulation score", "setting": "[4]", "result": "inactive: ≤ 0"}
    ]},
    {"compound": "CN(c1ccccc1CNc1nc(Nc2ccc3c(c2)CC(=O)N3)ncc1C(F)(F)F)S(C)(=O)=O", "values": [
      {"measurement": "scaled lipid accumulation score", "setting": "[1]", "result": "inactive: 0.012"},
      {"measurement": "scaled lipid accumulation score", "setting": "[2]", "result": "inactive: 0.01 and inactive: ≤ -0.005"},
      {"measurement": "scaled lipid accumulation score", "setting": "[3]", "result": "inactive: 0.006 and inactive: 0.062"},
      {"measurement": "scaled lipid accumulation score", "setting": "[4]", "result": "inactive: 0.25 and inactive: 0.064"}
    ]}
  ]
}
